{"source": "PubChem BioAssay AID686978", "about": "(National Center for Advancing Translational Sciences (NCATS), 2013)", "note": "The campaign covered roughly 420,000 compounds. About 64,000 (15%) were called active. The shares of active, inactive and inconclusive entries below differ from those in the screen. The call rests on the fitted dose curve; in most records, active means well fitted inhibition curve with a large enough effect; inconclusive means small, poorly fitted or top-dose-only effect; inactive means flat fitted curve, though single readings scatter. No potency is given beside an inconclusive call; the fits are too rough. On the % scale 0 is the no-effect control and ±100 the full control effect; potency means the concentration at half of the fitted maximal effect; tags describe the fitted curve by direction and shape.", "data": [{"assay": "qHTS for Inhibitors of human tyrosyl-DNA phosphodiesterase 1 (TDP1): qHTS in cells in absence of CPT; further: nearly all actives have a fitted effect of over 55% in size", "settings": "DT40 Tdp1-/- hTDP1 cells, no CPT, ATP luminescence, 48 h; activity change, negative = growth inhibition: at 46.2 µM (top of the series) unless noted", "how_it_was_run": "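Chicken DT40 Tdp1-/- cells stably complemented with human TDP1 were seeded at 400 cells/well with DMSO in place of 20 nM camptothecin. After compound pinning, cells grew at least 48 hr at 37 °C; viability read by CellTiter-Glo luminescence.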", "values": [{"smiles": "CC(/C=C/c1ccccc1)=N/NC(=O)c1cc([N+](=O)[O-])cc([N+](=O)[O-])c1", "Potency": "active: 5.17 µM"}, {"smiles": "O=C1N2CCCCC1(c1ccccc1)CCCC2", "Potency": "inconclusive [inhibitor, partial curve, poor fit]"}, {"smiles": "O=C(CCc1ccc(S(=O)(=O)N2CCOCC2)cc1)Nc1ccc2ccccc2c1", "Potency": "inconclusive [inhibitor, single point]"}, {"smiles": "COc1cccc(N2CCN(C(=O)c3ccc(CS(=O)Cc4ccc(C)cc4)o3)CC2)c1", "note": "(centres undefined)", "Potency": "inconclusive [inhibitor, partial curve, poor fit]"}, {"smiles": "COc1ccc(CNC(=O)CSc2nnc(C)c3c(C)n(-c4ccccc4)nc23)c(OC)c1", "Potency": "inconclusive [inhibitor, single point]"}, {"smiles": "CC(=O)c1ccc2c(c1)CC1(C2)Cc2cc3c(cc2C1)C(=O)CC3", "note": "(centres undefined)", "Potency": "active: 3.26 µM"}, {"smiles": "O=C1c2ccccc2CCC12N=NCC2c1ccccc1", "note": "(centres undefined)", "activity change, negative = growth inhibition": "inactive: -9.93%"}, {"smiles": "O=C(COC(=O)CCC(=O)N1CCOCC1)Nc1ccc(Br)cc1Br", "activity change, negative = growth inhibition": "inactive: 1.6%"}, {"smiles": "CC(C)NCc1c(O)c(Br)cc2oc3c(c12)CCCC3", "activity change, negative = growth inhibition": "inactive: -13.6%"}, {"smiles": "COc1ccccc1NC(=O)Nc1nnc(CC(=O)Nc2ccccc2C)s1", "Potency": "inconclusive [inhibitor, single point]"}, {"smiles": "COc1ccc(CCNC(=O)c2cnc3scc(C)n3c2=O)cc1OC", "Potency": "inconclusive [inhibitor, single point]"}, {"smiles": "COC(=O)c1ccsc1NC(=O)CCS(=O)(=O)c1ccccc1", "Potency": "inconclusive [inhibitor, single point]"}, {"smiles": "COc1ccc(S(=O)(=O)Nc2noc3ccccc23)cc1OC", "activity change, negative = growth inhibition": "inactive: 6.25%"}, {"smiles": "OC[C@@H]1[C@@H](c2ccc(F)cc2)C(c2cccc(Cl)c2)=NN1c1ccccc1", "Potency": "active: 23.1 µM"}, {"smiles": "Cc1cc(C)c2nc3sc(C(=O)N4CCOCC4)c(N)c3cc2c1", "Potency": "active: 0.206 µM"}, {"smiles": "CC(=O)Oc1ccc(Cn2c(C)c(C(=O)NCc3ccccc3C(F)(F)F)sc2=O)cc1", "Potency": "inconclusive [inhibitor, single point]"}, {"smiles": "O=C(CSc1nc2ccccc2n1Cc1cccc(F)c1)NCc1ccccc1", "Potency": "inconclusive [inhibitor, partial curve]"}, {"smiles": "COC(=O)c1ccccc1C(=O)N1CCCC(CNC(=O)c2ccc(F)cc2)C1", "note": "(centres undefined)", "activity change, negative = growth inhibition": "inactive: -3.28%"}, {"smiles": "Cc1ccc([C@H]2C(C(=O)O)=CC[C@@H](c3ccc(Cl)c(Cl)c3)N2S(=O)(=O)c2ccc(C)cc2)cc1", "Potency": "inconclusive [inhibitor, single point]"}, {"smiles": "O=S(=O)(NCCc1csc(-c2ccc(C(F)(F)F)cc2)n1)c1ccc2c(c1)OCCO2", "Potency": "active: 14.6 µM"}, {"smiles": "C=CCNC(=S)NNc1nc2sc3c(c2c(=O)[nH]1)CC(C)(C)OC3", "Potency": "inconclusive [inhibitor, single point]"}, {"smiles": "CC(=O)N[C@@H](Cc1c[nH]c2ccccc12)C(=O)OCC(=O)Nc1cc(C)on1", "activity change, negative = growth inhibition": "inactive: -9.79%"}, {"smiles": "Cc1ccc(N2CCN(C(=O)c3[nH]c(C(F)(F)F)nc3-c3ccccc3)CC2)cc1", "Potency": "inconclusive [inhibitor, partial curve]"}, {"smiles": "O=C1N[C@@H](Cc2cn(S(=O)(=O)c3ccc([N+](=O)[O-])cc3)c3ccccc23)C(=O)N[C@H]1Cc1ccccc1", "Potency": "inconclusive [inhibitor, single point]"}, {"smiles": "CCCCCCNc1ccc(/C=C/c2ccnc3ccccc23)cc1", "Potency": "active: 12.6 µM"}, {"smiles": "O=C(C/C=N/OCc1c(Cl)cccc1Cl)c1cnc(-c2ccccc2)s1", "Potency": "inconclusive [inhibitor, partial curve]"}, {"smiles": "CN(C(=O)COC(=O)c1cccc(S(=O)(=O)N2CCOCC2)c1)C1CCS(=O)(=O)C1", "note": "(centres undefined)", "activity change, negative = growth inhibition": "inactive: 9.23%"}, {"smiles": "O=C1CCCN1CCCNC(=S)Nc1ccc(Br)cc1Cl", "Potency": "inconclusive [inhibitor, single point]"}, {"smiles": "O=C(Nc1ccc2[nH]c3c(c2c1)CCCC3)c1ccco1", "Potency": "active: 20.6 µM"}, {"smiles": "O=C(NCC1CCCO1)C(C(=O)c1ccc(F)cc1)n1ccccc1=O", "note": "(centres undefined)", "Potency": "active: 23.1 µM"}, {"smiles": "Cc1cc(C(=O)COC(=O)CC2Sc3ccccc3NC2=O)c(C)n1-c1ccccc1", "note": "(centres undefined)", "Potency": "inconclusive [inhibitor, single point]"}, {"smiles": "COc1ccc(C(CNC(=O)c2oc3c(Cl)cccc3c2C)N2CCCC2)cc1", "note": "(centres undefined)", "Potency": "active: 23.1 µM"}, {"smiles": "Cc1ccc(-c2nnc(SCC(=O)NC3CCCc4ccccc43)n2N)cc1", "note": "(centres undefined)", "Potency": "inconclusive [inhibitor, single point]"}, {"smiles": "O=C(O)c1ccc(NC(=O)c2cc3c([nH]c2=O)CCCC3=O)cc1", "activity change, negative = growth inhibition": "inactive: -13.5%"}, {"smiles": "CC(C)OCCCNC(=O)c1cccc(NC(=O)c2ccccc2)c1", "Potency": "inconclusive [inhibitor, single point]"}, {"smiles": "COc1ccc(CCNC(=O)/C(C#N)=C/c2cccc(OCc3ccccc3)c2)cc1OC", "Potency": "active: 18.4 µM"}, {"smiles": "CCOc1ccccc1N1CCN(C(=O)NC(C)c2ccc(F)c(F)c2)CC1", "note": "(centres undefined)", "Potency": "inconclusive [inhibitor, partial curve]"}, {"smiles": "C=C(C)C1CC=C(C)/C(=N\\NC(=O)CCC(=O)Nc2ccc(C)c(C)c2)C1", "note": "(centres undefined)", "Potency": "inconclusive [inhibitor, single point]"}, {"smiles": "Cn1c(=O)c2c(nc(N3CCN(c4ccc([N+](=O)[O-])cc4)CC3)n2C)n(C)c1=O", "Potency": "active: 18.4 µM"}, {"smiles": "Cc1csc(NC(=O)CSc2nccn2Cc2ccco2)n1", "activity change, negative = growth inhibition": "inactive: 13.2%"}, {"smiles": "CN[C@H](CC(C)C)C(=O)N[C@H]1C(=O)N[C@@H](CC(N)=O)C(=O)N[C@H]2C(=O)N[C@H]3C(=O)N[C@H](C(=O)N[C@@H](C(=O)O)c4cc(O)cc(O)c4-c4cc3ccc4O)[C@H](O)c3ccc(c(Cl)c3)Oc3cc2cc(c3O[C@@H]2O[C@H](CO)[C@@H](O)[C@H](O)[C@H]2O[C@H]2C[C@](C)(N)C(O)[C@H](C)O2)Oc2ccc(cc2Cl)[C@H]1O", "note": "(some centres undefined)", "Potency": "inactive"}, {"smiles": "Cc1cc2sc(NC(=O)c3ccco3)nc2cc1Cl", "activity change, negative = growth inhibition": "inactive: -21.5%"}, {"smiles": "Cc1ccc(NC(=O)c2ccc(CN3CC(=O)N4CCCCC4C3=O)cc2)c(Cl)c1", "note": "(centres undefined)", "Potency": "inconclusive [inhibitor, single point]"}, {"smiles": "CCn1nc(C)c(CNC(=O)c2cc(COc3cncc(Cl)c3)on2)c1C", "Potency": "inconclusive [inhibitor, single point]"}, {"smiles": "Cc1cc(C)n(-c2nnc3c4ccccc4n(C)c3n2)n1", "Potency": "inconclusive [inhibitor, single point]"}, {"smiles": "CCOc1cccc(CN2CCC(n3nccc3NC(=O)c3ccc4c(c3)OCO4)CC2)c1", "Potency": "inconclusive [inhibitor, single point]"}, {"smiles": "Cn1cccc1-c1cc(C(=O)N/N=C/c2ccc(F)cc2)[nH]n1", "Potency": "inconclusive [inhibitor, single point]"}, {"smiles": "Cc1[nH]c2ccc(-c3n[nH]c(=S)n3Cc3ccccc3)cc2c1C", "Potency": "active: 16.4 µM"}, {"smiles": "CC1CCC(NC(=O)COC(=O)CCC(=O)c2ccc(Cl)s2)CC1", "note": "(centres undefined)", "activity change, negative = growth inhibition": "inactive: -9.55%"}, {"smiles": "O=C(NC(Cc1ccccc1)C(=O)O)/C(=C/c1ccco1)NC(=O)c1cccc([N+](=O)[O-])c1", "note": "(centres undefined)", "activity change, negative = growth inhibition": "inactive: -0.44%"}, {"smiles": "O=C(NC1CCCCC1)C1CCN(S(=O)(=O)c2cccc3nonc23)CC1", "activity change, negative = growth inhibition": "inactive: 10.4%"}, {"smiles": "CC(=O)c1ccc(-c2ccc(C(=O)Nc3nc(-c4ccccn4)cs3)o2)cc1", "Potency": "active: 3.66 µM"}, {"smiles": "CCCCOc1ccc(C(C)NC(=O)CCS(=O)(=O)Cc2ccc(C)cc2)cc1", "note": "(centres undefined)", "Potency": "inconclusive [inhibitor, partial curve, poor fit]"}, {"smiles": "CCOc1ccc(C(=O)NC(=S)NC2CCCC2)cc1[N+](=O)[O-]", "Potency": "inconclusive [inhibitor, partial curve, poor fit]"}, {"smiles": "O=C(CC(c1cccs1)N1Cc2ccccc2C1=O)Nc1ccc(F)cc1", "note": "(centres undefined)", "Potency": "inconclusive [inhibitor, partial curve]"}, {"smiles": "COc1cc(CNC(=O)c2cc3n(n2)CCCN(Cc2cccc(F)c2)C3=O)cc(OC)c1OC", "Potency": "active: 20.6 µM"}, {"smiles": "CCOC(=O)[C@H]1[C@H]2COc3ccc(Cl)cc3[C@@H]2N2C(=O)CN(Cc3ccc(Cl)cc3)C(=O)[C@@]12C", "Potency": "active: 16.4 µM"}, {"smiles": "COc1cccc(CCN2CCC(CNS(=O)(=O)c3cc(-c4cc(C)no4)ccc3OC)CC2)c1", "activity change, negative = growth inhibition": "inactive: -9.9%"}, {"smiles": "CCCCN(CCCC)C1=Nc2ccccc2N/C1=C(/C#N)C(=O)OCC", "Potency": "active: 20.6 µM"}, {"smiles": "CCOc1ccc(CCNC(=O)c2c(C)oc3ncn(CC(C)C)c(=O)c23)cc1OCC", "Potency": "inconclusive [inhibitor, partial curve]"}, {"smiles": "COc1cccc(CNC(=O)CC2C(=O)NCCN2CCCc2ccccc2)c1", "note": "(centres undefined)", "Potency": "inconclusive [inhibitor, single point]"}, {"smiles": "CN(C)CCCNc1ccc(-c2n[nH]c(=O)c3ccccc23)cc1[N+](=O)[O-]", "Potency": "active: 23.1 µM"}, {"smiles": "CCCN(CC(=O)NC(=O)NCc1ccccc1)CC(=O)Nc1ccc(F)c(F)c1F", "Potency": "inconclusive [inhibitor, single point]"}, {"smiles": "CNc1ccccc1C(C)(C)c1cc(C)[nH]n1", "Potency": "inconclusive [inhibitor, single point]"}, {"smiles": "O=c1oc2ccccc2cc1-c1nc(-c2ccccc2)no1", "activity change, negative = growth inhibition": "inactive: -16.8%"}, {"smiles": "Cc1cc(NCc2ccc(F)cc2Cl)n2nnnc2n1", "activity change, negative = growth inhibition": "inconclusive: -34.1% [inhibitor]"}, {"smiles": "CCc1ccccc1NC(=O)CSc1nnc(C2CC2)n1CC1CCCO1", "note": "(centres undefined)", "activity change, negative = growth inhibition": "inconclusive: -30.5% [inhibitor]"}, {"smiles": "COc1ccc(CN(CCN(C)C)c2ccccn2)cc1", "Potency": "inconclusive [inhibitor, full curve, poor fit]", "activity change, negative = growth inhibition": "inconclusive: -30% [inhibitor]"}]}]}
